# Measured values published in the supplement of paper PMC4604168 (melanoma cell lines).
# Some of the results follow. Many values rest on one well or one pass, so single values are uncertain.
# Assays:
# Assay in all cases: cell count relative to DMSO control; melanoma cells; higher = more viable cells
# Conditions in all cases: library dose: standard library concentration; 72 h
# SkMel28 = test system: SkMel28
# SkMel2 = test system: SkMel2
# SkMel30 = test system: SkMel30
# SkMel5 = test system: SkMel5
# UACC257 = test system: UACC257
# UACC62 = test system: UACC62
# WM115 = test system: WM115
# WM1716 = test system: WM1716
# WM1745 = test system: WM1745
# WM3526 = test system: WM3526
# 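Further: cells treated in 1,536-well plates, then fixed and DAPI-stained, with nuclei counted from automated high-throughput microscope images.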
SMILES,cell count (SkMel28) [%],cell count (SkMel2) [%],cell count (SkMel30) [%],cell count (SkMel5) [%],cell count (UACC257) [%],cell count (UACC62) [%],cell count (WM115) [%],cell count (WM1716) [%],cell count (WM1745) [%],cell count (WM3526) [%]
"Cc1cc(Nc2cc(N3CCN(C)CC3)nc(/C=C/c3ccccc3)n2)n[nH]1 + Clc1ccc(Nc2nnc(Cc3ccncc3)c3ccccc23)cc1 [vatalanib] (first compound 0.2 µM, partner dose 10 µM)",51,80.4,80.8,72.7,78.2,62.2,52.6,78,58,68.4
"COc1ccc(C2=N[C@@H](c3ccc(Cl)cc3)[C@@H](c3ccc(Cl)cc3)N2C(=O)N2CCNC(=O)C2)c(OC(C)C)c1 [Nutlin-3] + CN(NC(=O)CC(=O)NN(C)C(=S)c1ccccc1)C(=S)c1ccccc1 [STA4783] (first compound 0.5 µM, partner dose 0.03 µM)",24,54.5,85.4,50.7,80.7,40.1,22,58.8,28,85.7
"CC(C)C[C@H](NC(=O)[C@H](Cc1ccccc1)NC(=O)c1cnccn1)B(O)O [Bortezomib] + CO[C@H]1C[C@@H]2CC[C@@H](C)[C@@](O)(O2)C(=O)C(=O)N2CCCC[C@H]2C(=O)O[C@H]([C@H](C)C[C@@H]2CC[C@@H](OCCO)[C@H](OC)C2)CC(=O)[C@H](C)/C=C(\C)[C@@H](O)[C@@H](OC)C(=O)[C@H](C)C[C@H](C)/C=C/C=C/C=C/1C [everolimus] (first compound 0.005 µM, partner dose 0.1 µM)",42,32.9,39.4,30.6,73.1,50.9,19.4,17.2,15.7,38
"COc1ccc(C2=N[C@@H](c3ccc(Cl)cc3)[C@@H](c3ccc(Cl)cc3)N2C(=O)N2CCNC(=O)C2)c(OC(C)C)c1 [Nutlin-3] + C[C@]1(O)C[C@@H](c2nc(-c3ccc4ccc(-c5ccccc5)nc4c3)c3c(N)nccn32)C1 [OSI906] (first compound 0.5 µM, partner dose 2 µM)",53.3,74.4,79.8,62.3,82.7,58.2,95.9,79.4,56.4,71.3
"COc1ccc(C2=N[C@@H](c3ccc(Cl)cc3)[C@@H](c3ccc(Cl)cc3)N2C(=O)N2CCNC(=O)C2)c(OC(C)C)c1 [Nutlin-3] + Cn1c(Nc2ccc(C(F)(F)F)cc2)nc2cc(Oc3ccnc(-c4ncc(C(F)(F)F)[nH]4)c3)ccc21 [CHIR265] (first compound 0.5 µM, partner dose 0.4 µM)",38.7,47.2,61.8,32.7,77.3,56.5,36.7,57.7,56.8,44.1
"Cc1cn(-c2cc(NC(=O)c3ccc(C)c(Nc4nccc(-c5cccnc5)n4)c3)cc(C(F)(F)F)c2)cn1 [nilotinib] + C#Cc1cccc(Nc2ncnc3cc(OCCOC)c(OCCOC)cc23)c1 [erlotinib] (first compound 1 µM, partner dose 4 µM)",65.4,88.3,93.6,54.8,109,58.7,71.9,99,63.5,74.8
"Cn1c(=O)n(-c2ccc(C(C)(C)C#N)cc2)c2c3cc(-c4cnc5ccccc5c4)ccc3ncc21 + Cc1ccc(NC(=O)c2cccc(N(C)C)c2)cc1NC(=O)c1ccc(O)cc1 [ZM336372] (first compound 0.02 µM, partner dose 10 µM)",85.1,73.1,95.6,70,107,74.9,72.4,86.2,80.8,76.3
"Cn1c(=O)n(-c2ccc(C(C)(C)C#N)cc2)c2c3cc(-c4cnc5ccccc5c4)ccc3ncc21 + Cn1cncc1[C@@](N)(c1ccc(Cl)cc1)c1ccc2c(c1)c(-c1cccc(Cl)c1)cc(=O)n2C [tipifarnib] (first compound 0.02 µM, partner dose 0.05 µM)",37.2,50.1,67.5,56.4,88.6,62.5,57,51.6,72.6,55.9
"Cc1cc(Nc2cc(N3CCN(C)CC3)nc(/C=C/c3ccccc3)n2)n[nH]1 + Nc1ccn([C@@H]2O[C@H](CO)[C@@H](O)C2(F)F)c(=O)n1 [gemcitabine] (first compound 0.2 µM, partner dose 0.002 µM)",97,114,103,89.3,93.5,97.6,72.6,82.1,45.1,97.3
"Cc1cn(-c2cc(NC(=O)c3ccc(C)c(Nc4nccc(-c5cccnc5)n4)c3)cc(C(F)(F)F)c2)cn1 [nilotinib] + Nc1ccn([C@@H]2O[C@H](CO)[C@@H](O)C2(F)F)c(=O)n1 [gemcitabine] (first compound 1 µM, partner dose 0.002 µM)",79.8,79,96.7,66.5,121,75.7,73.5,67.6,71.3,82.1
"Cn1c(=O)n(-c2ccc(C(C)(C)C#N)cc2)c2c3cc(-c4cnc5ccccc5c4)ccc3ncc21 + COc1ccc(Cl)c(Nc2nc3ccccc3nc2NS(=O)(=O)c2cccc(NC(=O)C(C)(C)N)c2)c1 [XL147] (first compound 0.02 µM, partner dose 4 µM)",51.9,65.8,86.8,72,97.3,99,103,82.9,86.1,81.1
"COc1ccc(C2=N[C@@H](c3ccc(Cl)cc3)[C@@H](c3ccc(Cl)cc3)N2C(=O)N2CCNC(=O)C2)c(OC(C)C)c1 [Nutlin-3] + OCCn1cc(-c2cnc3nnn(Cc4ccc5ncccc5c4)c3n2)cn1 [PF04217903] (first compound 0.5 µM, partner dose 5 µM)",44.8,87,92.1,69.5,70.2,76.5,73.6,59.1,79.6,95.7
"Cc1cn(-c2cc(NC(=O)c3ccc(C)c(Nc4nccc(-c5cccnc5)n4)c3)cc(C(F)(F)F)c2)cn1 [nilotinib] + CN(c1ncccc1CNc1nc(Nc2ccc3c(c2)CC(=O)N3)ncc1C(F)(F)F)S(C)(=O)=O [PF562271] (first compound 1 µM, partner dose 0.4 µM)",77.3,74.8,90.9,53.5,94.6,47.8,71.2,93.2,63.9,106
"COc1ccc(C2=N[C@@H](c3ccc(Cl)cc3)[C@@H](c3ccc(Cl)cc3)N2C(=O)N2CCNC(=O)C2)c(OC(C)C)c1 [Nutlin-3] + Cc1cc(N2CCOCC2)cc2[nH]c(-c3c(NC[C@@H](O)c4cccc(Cl)c4)cc[nH]c3=O)nc12 [BMS536924] (first compound 0.5 µM, partner dose 1 µM)",65.1,68.6,80.1,64.5,107,66.8,88.6,97.4,47.3,79.9
"COc1ccc(C2=N[C@@H](c3ccc(Cl)cc3)[C@@H](c3ccc(Cl)cc3)N2C(=O)N2CCNC(=O)C2)c(OC(C)C)c1 [Nutlin-3] + Cc1cc(Nc2cc(N3CCN(C)CC3)nc(/C=C/c3ccccc3)n2)n[nH]1 [ENMD2076] (first compound 0.5 µM, partner dose 0.2 µM)",40.2,86,113,78.2,104,46.6,60.2,75.2,61,88.4
"Cc1cn(-c2cc(NC(=O)c3ccc(C)c(Nc4nccc(-c5cccnc5)n4)c3)cc(C(F)(F)F)c2)cn1 [nilotinib] + C[C@@H](N)c1ccc(C(=O)Nc2ccnc3[nH]ccc23)cc1 [RKI983] (first compound 1 µM, partner dose 2 µM)",59.3,75.4,74.6,38,55.3,70.7,84.2,43.6,38.1,66.9
"COc1ccc(C2=N[C@@H](c3ccc(Cl)cc3)[C@@H](c3ccc(Cl)cc3)N2C(=O)N2CCNC(=O)C2)c(OC(C)C)c1 [Nutlin-3] + CS(=O)(=O)c1ccc(C(=O)Nc2ccc(Cl)c(-c3ccccn3)c2)c(Cl)c1 [vismodegib] (first compound 0.5 µM, partner dose 5 µM)",62.7,97.2,98.6,68.8,74.4,59.8,85.3,89.4,89.7,107
"COc1ccc(C2=N[C@@H](c3ccc(Cl)cc3)[C@@H](c3ccc(Cl)cc3)N2C(=O)N2CCNC(=O)C2)c(OC(C)C)c1 [Nutlin-3] + C[C@]1(c2nc3c(C(N)=O)cccc3[nH]2)CCCN1 [Veliparib] (first compound 0.5 µM, partner dose 7 µM)",51,71.7,79.3,53.7,79.1,48.2,44.9,83.1,90.1,74.1
"Cc1cn(-c2cc(NC(=O)c3ccc(C)c(Nc4nccc(-c5cccnc5)n4)c3)cc(C(F)(F)F)c2)cn1 [nilotinib] + CC(C)C[C@H](NC(=O)[C@H](Cc1ccccc1)NC(=O)c1cnccn1)B(O)O [Bortezomib] (first compound 1 µM, partner dose 0.005 µM)",29.4,37.6,23.6,20.9,84.1,48.3,22,21.6,12,27.9
"Cn1c(=O)n(-c2ccc(C(C)(C)C#N)cc2)c2c3cc(-c4cnc5ccccc5c4)ccc3ncc21 + CS(=O)(=O)CCNCc1ccc(-c2ccc3ncnc(Nc4ccc(OCc5cccc(F)c5)c(Cl)c4)c3c2)o1 [lapatinib] (first compound 0.02 µM, partner dose 4 µM)",37,47.5,57.2,49.2,106,41.7,66.9,65.7,81.6,54.1
